The text below walks through data of the RNAGym collection of RNA variant scans (doi:10.1093/nar/gkz1192).

Read counts are not given, so values of variants with three or more changes are uncertain.

B1: CPEB3 Ribozyme (parent)
chain: UAACAGGGGGCCACAGCAGAAGCGUUCACGUCGCAGCCCCUGUCAGAUUCUGGUGAAUCUGCGAAUUCUGCUGUAUAUCUC

The variants in the series derive from B1. Briefly: self-cleavage, relative activity (ratio to wild type); higher = more cleavage; in vitro, sequencing. The method in brief: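 CPEB3 self-cleaving ribozyme mutant libraries were made by rounds of error-prone PCR, barcoded, and transcribed in vitro with T7 RNA polymerase for 5 hours at 37°C. Cleavage occurred during transcription and a 15 min DNase I step before EDTA stop. RNAs were reverse transcribed with template switching and Illumina-sequenced, with DNA sequencing mapping barcodes to variants. Relative activity is the variant's cleaved/total read fraction divided by wild type's (minimum 5 reads), averaged across three batches.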
In the case of UAACAAGGGGCCACAGCGGAAGCGUUCACGUCGCAGCCCCUGUCAGAUUCCGGUGGGUCUGCGAAUUCUGCUGUAUAUCUC [G6A A18G U51C A56G A57G], the self-cleavage is 0.13.
For UAACAAGGGGCCACAGCGGAAGCGUCCACGUCGCAGCCCCUGUCAGAUUCUGGUGAAUCUGCGAAUUCUGCUGUAUAUCUC [G6A A18G U26C] the value was 0.24; for UAACAAGGGGCCACAGCAGUAGCGUUCACGUCGCAGCCCCUGUCAGAUUCUGGUGAAUCUGCGAAUUCUGCAGUAUAUCUC [G6A A20U U72A], 0.16; for UAACAAGGGGCCACAGCGGAAGCGUUCACGUCGCAGCCCCUGUCAGAUUCCGGUGGGUCUGCGAAUUCCGCUGUAUACCUC [G6A A18G U51C A56G A57G U69C U78C], 0.06.
For UAACAAGGGGCCACAGCGGAAGCGUUCACGUCGCAGCCCCUGUCAGAUUCUGGUGAAUCCGCGAAUUCUGCUGUAUAUCAC [G6A A18G U60C U80A] the value was 0.08; for UAACAAGGGGCCACAGCAGGAGCGUUCGCGUCGCAGCCCCUGUCAGAUUCUGGUGAAUCUGCGAAUUCUGCAGUAUAUCUC [G6A A20G A28G U72A], 0.23.
The figure for UAACAAGGGGCCACAGCAGGAGCGUUCACGUCGCAGCCCCUGUCUGUUUCUGGUGAUUCUGCGAAUUCCGCCGUAUAUCUC [G6A A20G A45U A47U A57U U69C U72C] is 0.08; for UAACAAGGGGCCACAGCGGAAGCGUUCACGUCGCAGCCCCUGUCAGAUUCUGGUGAAUCUGCGAAUUCCGCCGCAUAUCUC [G6A A18G U69C U72C U74C] it is 0.13.
In the case of UAACAAGGGGCCACAGCUGGAGCGUUCACGUCGCAGCCCCUGUCAGAUUCUGGUGAAUCUGUGAAUUCUGCUGUAUAUCAU [G6A A18U A20G C62U U80A C81U], the self-cleavage came to 0.07.
For the variant UAACAAGGGGCCACAGCAGGAGCGUUCACGUCGCAGCCCCUGUCAGGUUCUGGUGAAUCUGCGAAUUGUGCUGUAUAUCUC [G6A A20G A47G C68G], the self-cleavage amounted to 0.06.
For UAACAAGGGGCCACAGCAGUAGCGUUCACGUCGCAGCCCCUGUCAGAUUCUGGUGAAUCUGCGAAUUCUGCUGUACAUCUC [G6A A20U U76C] the value was 0.06.
For UAACAAGGGGCCACAGCUGAAGCGAUCACGUCGCGGCCCCUGUCAGAUUCUGGUGAAUCCGCGAAUUCUGCUGUAUAUAUC [G6A A18U U25A A35G U60C C79A] the value was 0.04; for UAACAAGGGGCCACAGCAGAGGCGUUCACGUCGCUGCCCCUGUCAGAUUCUGGUGUGUCUGCGAACUCUGCUGUAUACCUC [G6A A21G A35U A56U A57G U66C U78C], 0.05.
Consider UAACAAGGGGCCACAGCAGGAGCGUUCACGUCGCAGCCCCUGUCAGAUCCUGGUGAAUCUGCCAAUCCUGCUGUAUAUCUC [G6A A20G U49C G63C U67C], for which the self-cleavage is 0.15.
For UAACAAGGGGCCACAGCAGUAGCGUUCACGCCGCAGCCCCUGCCAGAUACUGGUGAAUCUGCGAAUUCUGCUGUAUAUCUC [G6A A20U U31C U43C U49A] the value was 0.06.
With UAACAAGGGGCCACAGCAGGAGCGUUCACGUCGCAGCCCCUGUCAGACUCUGGUGAAUCUGCGAAUUCUGCUGUAUACCUC [G6A A20G U48C U78C], the self-cleavage stood at 0.2.
UAACAAGGGGCCACAGCAGAGGCGUUCACUUCGCAGCCCCCGUCAGAUUCUGGUGAAUCUGCGAAUUCUGCUGUAUAUCUC [G6A A21G G30U U41C]: the self-cleavage worked out at 0.3.
The figure for UAACAAGGGGCCACAGCGGAAGCGUUCACGUCGCAGCCCCUGUCAGAUUCUGGUGAAUCUGCGAAUUCUGCGGUAUAUCUC [G6A A18G U72G] is 0.06.
Turning to UAACAAGGGGCCACAGCUGAAGCGUUCACGUCGCAGCCCCUGUCAGAUUCUGGUGAAUCUGCGAAUUCUGCUGCGUAUCUC [G6A A18U U74C A75G], the self-cleavage was 0.24.
UAACAAGGGGCCACAGCAGAGGCGUUCACGUCGCAGCCCCUGUCAGGUUCUGGAGAAUCUGCGAAUUCUGCUGUAUAUCUC [G6A A21G A47G U54A]: the self-cleavage turned out to be 0.16.
For UAACAAGGGGCCACAGCAGGAGCGUUCACGUCGCAGCCCCUGUCAGAUUCUGGUGAAUCUGCGAAUUCUGCUGUAUACCUC [G6A A20G U78C] the value was 0.09; for UAACAAGGGGCCACAGCUGAAGCGUUCACGUCGCAGCCCCUGUCAGAUUCUGGUGAUUCUGCGAAUUCUGCUGUAUAUCUC [G6A A18U A57U], 0.37; for UAACAAGGGGCCACAGCGGAAGCGUUCACGUCGCAGCCCCUGUCAGAUUCUGGUGAAUCUGCGAAUUCUGCUGUAUAUCAC [G6A A18G U80A], 0.55.
The figure for UAACAAGGGGCCACAGCAGAGGCGUUCACGUCGCAGCCCCUGUCAGUUUCUGGUGAAUCUGCGAAUUCUGCCGUGUAUCUC [G6A A21G A47U U72C A75G] is 0.06; for UAACAAGGGGCCACAGCAGACGCGUUCACGUCGCAGCCCCUGUAAGAUUCUGUUGAAUCUGCGAAUUCUGCUGUAUAUCUC [G6A A21C C44A G53U] it is 0.07.
The figure for UAACAAGGGGCCACAGCUGAAGCGUUCAGGACGCAGCCCCUGUCAGAUUCUGGAGAAUCUGCGAAUUCUGCAGUAUACCUC [G6A A18U C29G U31A U54A U72A U78C] is 0.04; for UAACAAGGGGCCACAGCAGAGGCGUUCACGUCACAGCCCCUGUCAGAUUCUGGUGAAUCUGCGAAUUCAGCUGUAUAUCUC [G6A A21G G33A U69A] it is 0.43.
In the case of UAACAAGGGGCCACAGCAGGAACGUUCACGUCGCAGCCCCUGUUAGAUUCUGGUGAAUCUGCGAUUUCUGCUGUAUAUCUC [G6A A20G G22A C44U A65U], the self-cleavage was found to be 0.04.
The figure for UAACAAGGGGCCACAGCAGUAGCGUUCACGUCGCAGCCCCUGACAGAUUCUGGCGAAUCUGCGAAUUCUGCCGUAUAUCUC [G6A A20U U43A U54C U72C] is 0.09; for UAACAAGGGGCCACAGCUGAGGCGUUCACGUCGCAGCCCCUGUCAGAUUCUGGUGAAUCUGCGAAUUCUGCUGUAUAUGUC [G6A A18U A21G C79G] it is 0.05.
As to UAACAAGGGGCCACAGCAGAGGCGUUCACGUCGCAGCCCCUGUCAGAUUCUGGUGAAUCUGCGGAUUCUGCUGUAUAUCUC [G6A A21G A64G], the self-cleavage worked out at 0.05.
Take UAACAAGGGGCCACAGCAGGGGCGUUCACGCCGCAGCCCCUGUCAGAUUCUGGUGAAUCUGCGAAUUCUGCUGUAUAACUC [G6A A20G A21G U31C U78A]: the self-cleavage is 0.28.
For UAACAAGGGGCCACAGCGGAAGCGUUCACGUCGCAGCCCCCGUCAGAUUCUGGUGAAUCUGCGAAUUCUGCUGUAUAUCUC [G6A A18G U41C] the value was 0.32.
The figure for UAACAAGGGGCCACAGCAGGAGCGUUCACGUCGCAGCCCCUGCCAGAUUCUGGUGAAUCUGCGAUUUCUGCUGCAUAUCAC [G6A A20G U43C A65U U74C U80A] is 0.13.
